Laboratory results reported in PMC4336329 (PLoS ONE, 2015).
Among all 310,000 compounds or so, about 2,200 (0.71%) showed an effect of 50% or more. The effect is printed as a negative number. This is one part of the list.

target: human ether-à-go-go-related gene (hERG) potassium channel (human, UniProt Q12809); experiment: primary screen, population patch clamp on CHO cells stably expressing hERG
Sequence (Q12809 whole entry, looked up): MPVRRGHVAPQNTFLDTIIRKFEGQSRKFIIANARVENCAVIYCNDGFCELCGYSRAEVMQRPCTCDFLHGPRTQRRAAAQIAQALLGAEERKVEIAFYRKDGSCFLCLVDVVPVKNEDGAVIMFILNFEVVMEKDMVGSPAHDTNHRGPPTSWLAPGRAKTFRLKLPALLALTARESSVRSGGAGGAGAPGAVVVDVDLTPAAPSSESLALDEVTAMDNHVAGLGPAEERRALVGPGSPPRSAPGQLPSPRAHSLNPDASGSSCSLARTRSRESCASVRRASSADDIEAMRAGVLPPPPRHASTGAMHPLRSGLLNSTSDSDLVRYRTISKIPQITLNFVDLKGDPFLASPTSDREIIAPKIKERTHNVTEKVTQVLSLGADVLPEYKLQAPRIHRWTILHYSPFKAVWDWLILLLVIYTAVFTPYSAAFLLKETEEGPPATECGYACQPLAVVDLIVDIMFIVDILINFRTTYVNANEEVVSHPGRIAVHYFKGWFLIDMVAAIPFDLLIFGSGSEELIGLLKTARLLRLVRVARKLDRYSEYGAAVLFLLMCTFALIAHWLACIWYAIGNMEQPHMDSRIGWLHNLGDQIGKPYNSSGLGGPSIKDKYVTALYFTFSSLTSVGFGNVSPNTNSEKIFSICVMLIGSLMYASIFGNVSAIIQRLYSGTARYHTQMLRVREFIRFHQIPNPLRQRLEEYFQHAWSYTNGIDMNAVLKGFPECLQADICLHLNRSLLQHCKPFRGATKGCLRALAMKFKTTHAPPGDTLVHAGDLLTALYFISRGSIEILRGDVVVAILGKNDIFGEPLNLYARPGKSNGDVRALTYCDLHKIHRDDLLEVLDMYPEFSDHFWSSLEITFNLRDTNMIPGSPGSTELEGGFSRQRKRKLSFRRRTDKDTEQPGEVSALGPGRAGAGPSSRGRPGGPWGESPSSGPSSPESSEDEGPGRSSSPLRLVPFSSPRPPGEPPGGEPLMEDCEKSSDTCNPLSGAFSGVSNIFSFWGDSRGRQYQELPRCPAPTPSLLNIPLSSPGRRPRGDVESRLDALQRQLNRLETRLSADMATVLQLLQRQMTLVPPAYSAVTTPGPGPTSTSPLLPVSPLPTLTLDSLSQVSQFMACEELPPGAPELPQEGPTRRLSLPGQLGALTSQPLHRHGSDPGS

Compound	hERG current change (%, negative = inhibition) at 1uM [%]
Cc1ccc(NC(=O)CSc2nc3c(c(=O)n(C)c(=O)n3C)n2C)cc1	-2.58
COc1ccc(NC(C)C(=O)N/N=C/c2ccccc2OCc2cccc(Br)c2)cc1 (centres unmarked)	9.78
C/C=C/Cn1c(SCc2ccc(Cl)cc2)nc2c1c(=O)[nH]c(=O)n2C	0.817
Cc1cnc(C(=O)Oc2cccc(Cl)c2Cl)cn1	13.4
Cc1noc(C)c1COc1ccccc1C(=O)N1CCN(S(=O)(=O)c2ccccc2F)CC1	4.27
O=C(Nc1ccc(S(=O)(=O)NCC2CCCO2)cc1)c1cccc(F)c1 (centres unmarked)	13.7
CCOC(=O)c1sc(=S)n(-c2ccc(OC)cc2)c1N	12.7
c1ccc(-c2cc3c(N4CCCC4)ncnc3s2)cc1	-4.18
COc1ccc(C)cc1NS(=O)(=O)c1cn(C)nc1C	4.68
CCCC1CCC(C2=N/C(=C\c3ccc(OC)c(OC)c3)C(=O)O2)CC1 (centres unmarked)	-5.6
O=C(COc1ccc2ccccc2c1)N1CCN(C(=O)c2ccco2)CC1	4.23
CC1(C)N=C(N)NC(Nc2ccccc2Cl)=N1	13.7
CCn1cc(C(=O)NCc2cccs2)c(=O)c2cc(S(=O)(=O)N3CCOCC3)ccc21	2.67
O=C(CCC(=O)N(CC(=O)NC1CCCCC1)Cc1cccs1)Nc1ccccn1	8.18
Cc1ccc(-c2ccc(S(=O)(=O)N3CCN(C)CC3)cc2)cc1	-5.84
CC1CCN(C(=O)C(Cc2ccccc2)NS(=O)(=O)c2ccc3c(c2)oc(=O)n3C)CC1 (centres unmarked)	7.67
Cc1ccc(/C=C2\SC(=S)N(CCC(=O)NNC(=O)c3ccc(O)cc3)C2=O)cc1	15.8
Cc1cc(C(=O)N(C)CC2CCCN(CCc3ccc(F)cc3)C2)c(C)o1 (centres unmarked)	-71.6
Cc1ccc(S(=O)(=O)NCCOc2nc(N(C)C)nc(N3CCOCC3)n2)cc1	6.14

Compound	hERG current change (%, negative = inhibition) at 1uM [%]
Cc1cccc(NC(=O)c2cc(N3CCOCC3)nc3ccccc23)c1	3.26
COc1ccc(C(=O)NC(C)c2ccc(-n3ccnc3)cc2)c(OC)c1OC (centres unmarked)	-21.2
O=C(CC(=O)Nc1nc(C23CC4CC(CC(C4)C2)C3)cs1)NCCO	15.2
C/C(=N\OCc1ccccc1C#N)c1cc2ccccc2o1	6.54
Nc1ccn([C@H]2CC[C@@H](CO)O2)c(=O)n1	18
CN(CCc1cnn(C)c1)Cc1cn[nH]c1-c1ccc(-c2ccccc2)cc1	-21.1
CCOC(=O)c1c(C)c(C(=O)NC(C)COC)c(C)n1C (centres unmarked)	18.9
CC1CCCC(C)N1C(=C(Cl)Cl)C(=C1SCCS1)[N+](=O)[O-] (centres unmarked)	14.9
COc1ccc(CNC(=O)CCN2C(=O)c3ccccc3S2(=O)=O)cc1	-3.38
Nc1nonc1-n1nnc(C(=O)N/N=C/c2ccncc2)c1-c1cccs1	10.7
Cc1ccc(C(=O)NNC(=O)C(NC(=O)c2cccc(C)c2)C(C)C)cc1 (centres unmarked)	5.75
COc1cc(C(=O)NCC(=O)NCC(c2ccco2)N2CCCCC2)cc(OC)c1OC (centres unmarked)	8.27
O=C(CSc1nnnn1C1CC1)N1CCN(Cc2ccccc2F)CC1	9.38
CCC(C)NC(=O)c1ccc(CNS(=O)(=O)c2ccc3c(c2)C(C)(C)C(=O)N3C)cc1 (centres unmarked)	12.1
O=C(NCc1ccccn1)Nc1cccc(Cl)c1	8.41
N#Cc1nc(COc2ccc(Cl)cc2)oc1NCc1ccc2c(c1)OCO2	12.7
O=C(Nc1nc2ccccc2[nH]1)C1CCCO1 (centres unmarked)	10.4
COc1ccc(CCN2C(=O)CC(Sc3ncccc3C(=O)O)C2=O)cc1OC (centres unmarked)	10.6
CN(C(=O)CN1C(=O)/C(=C/c2ccc(F)cc2)SC1=S)C1CCS(=O)(=O)C1 (centres unmarked)	-10

Compound	hERG current change (%, negative = inhibition) at 1uM [%]
COc1ccc(N2CCN(S(=O)(=O)c3ccc4c(c3)NC(=O)CS4)CC2)cc1	20.2
CCOC(CNC(=O)C(=O)Nc1cc2c3c(c1)CC(=O)N3CCC2)OCC	14.9
COc1ccc(OC)c(NC(=O)CSc2ccccc2)c1	12.5
CCOc1ccc(NCc2cccn2-c2nnc(N3CCC(C(=O)NCCCN4CCCCC4C)CC3)s2)cc1 (centres unmarked)	6.42
CC(NC(=O)COc1ccc(Br)cc1)C(=O)O (centres unmarked)	12.1
Fc1ccc2[nH]c3c(NCCN4CCOCC4)ncnc3c2c1	8.84
O=C(CSc1nccn1-c1ccc(F)cc1)Nc1ccc2c(c1)OCO2	11.9
Cc1cc(F)ccc1NC(=O)c1cnccn1	4.74
CC(C)(C)c1cc(Cl)ccc1OCCOCCN1CCCC1.O=C(O)C(=O)O	0.044
CC(C)Nc1nnc(SCC(=O)N2CCN(C(=O)c3ccco3)CC2)s1	11.6
CCN(CC)S(=O)(=O)c1ccc(C(=O)NCc2n[nH]c(=S)n2-c2ccc(Cl)c(Cl)c2)cc1	15.4
CC1(C)Cc2c(cnn2-c2ccccc2)C(NC(=O)c2ccc[n+]([O-])c2)C1 (centres unmarked)	8.68
COc1ccc(C2CC(c3cccs3)=NN2C(=O)CCl)cc1OC (centres unmarked)	6.62
O=C(NC(=S)Nc1ccc(CN2CCOCC2)cc1)c1ccc2c(c1)OCCO2	2.11
O=c1cc(N2CCCCCC2)[nH]c(=O)n1-c1ccccc1Cl	10
Oc1ccc(/C=N/Nc2ccc(C(F)(F)F)cn2)cc1	7.84
CCOC(=O)C1(Cc2ccccc2C)CCCN(Cc2ccc(NC(C)=O)cc2)C1 (centres unmarked)	10.6
N#Cc1cc(-c2ccccc2)cnc1Sc1ccccc1	10.5
